About 220 (0.56%) of roughly 39,000 compounds showed activity. This is one part of the list.
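Also: static incubation at 37 °C against the wild-type strain, values averaged over two biological replicates.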

In the test the test system is Escherichia coli K-12 BW25113. As to the kind of experiment: relative growth (OD600 normalised to plate interquartile mean) (fraction); higher = less growth inhibition, active = 0.2 or less. Particulars: 50 µM; LB; incubation time: overnight (16-24 h).
With `Cc1ccc(S(=O)(=O)Nc2ccc3c(c2)C(=O)N([C@H](C)CO)C[C@@H](C)[C@H](CN(C)C(=O)C2CCCCC2)OCCCC[C@H](C)O3)cc1`, the relative growth is inactive: 0.989.
The value for `COc1ccc(CN(C)C[C@H]2OCCCC[C@H](C)Oc3ccc(NS(=O)(=O)c4ccccc4)cc3C(=O)N([C@H](C)CO)C[C@H]2C)cc1` was inactive: 0.995; that for `C[C@@H]1CN([C@@H](C)CO)S(=O)(=O)c2ccc(C#CC3(O)CCCC3)cc2O[C@@H]1CN(C)C(=O)Cc1ccncc1` was inactive: 1.01.
Regarding `C[C@H](CO)N1C[C@H](C)[C@H](CN(C)S(=O)(=O)c2ccccc2)Oc2ncc(C#Cc3ccc(F)cc3)cc2C1=O`, the relative growth is inactive: 1.01.
Take `COc1ccc(S(=O)(=O)Nc2ccc3c(c2)C(=O)N([C@@H](C)CO)C[C@H](C)[C@H](CN(C)CC2CCCCC2)OCCCC[C@@H](C)O3)cc1`: the relative growth was inactive: 0.982.
`O=C(CCCCCCC(=O)Nc1ccc(C(=O)NCCOCCOCCNC(=O)c2ccc(NC(=O)CCCCCCC(=O)NO)cc2)cc1)NO`: the relative growth is inactive: 0.977.
Take `Cc1ccc(S(=O)(=O)Nc2ccc3c(c2)C(=O)N([C@@H](C)CO)C[C@H](C)[C@H](CN(C)C(=O)Nc2ccccc2)OCCCC[C@H](C)O3)cc1`: the relative growth is inactive: 0.997.
Take `C[C@@H]1CN([C@@H](C)CO)C(=O)Cc2cc(NC(=O)C3CC3)ccc2O[C@H]1CN(C)Cc1ccc(Oc2ccccc2)cc1`: the relative growth was inactive: 0.967.
`COc1cc(C)ccc1S(=O)(=O)N1[C@@H]2CC[C@@H](C2)[C@H]1c1nc2cccc(OCc3ccc(F)cc3)c2[nH]1`: the relative growth is inactive: 1.04.
On to `CCNC(=O)C[C@H]1CC[C@H]2[C@@H](COc3ccc(NS(=O)(=O)c4ccccc4C)cc3C(=O)N2C)O1`, for which the relative growth is inactive: 0.96.
Take `Cc1ccc(S(=O)(=O)N(C)C[C@@H]2OCCCC[C@@H](C)Oc3ccc(NC(=O)CCC(F)(F)F)cc3C(=O)N([C@H](C)CO)C[C@@H]2C)cc1`: the relative growth is inactive: 1.03.
For `COc1cccc(C#Cc2cnc3c(c2)C(=O)N([C@@H](C)CO)C[C@@H](C)[C@@H](CN(C)C(=O)C2CCC2)O3)c1`, the relative growth was inactive: 1.01.
Turning to `O=C(NCCN1CCOCC1)C(=O)NC[C@H]1OCCN1S(=O)(=O)c1ccc(F)cc1`, the relative growth was inactive: 1.01.
The value for `C[C@H](CO)N1C[C@H](C)[C@@H](CN(C)CC2CC2)Oc2ccc(NS(=O)(=O)c3ccc(F)cc3)cc2C1=O` was inactive: 1.01; that for `CC(C)NC(=O)N(C)C[C@@H]1OCCCC[C@@H](C)Oc2ccc(NC(=O)Nc3cccc4ccccc34)cc2C(=O)N([C@H](C)CO)C[C@@H]1C` was inactive: 0.997; that for `C[C@H]1CCCCO[C@H](CN(C)Cc2ccncc2)[C@@H](C)CN([C@@H](C)CO)C(=O)c2cc(NC(=O)Nc3ccc(C(F)(F)F)cc3)ccc2O1` was inactive: 0.992.
Under `C[C@@H]1CCCCO[C@@H](CN(C)C(=O)Nc2cccc3ccccc23)[C@H](C)CN([C@@H](C)CO)C(=O)c2cc(NC(=O)c3ccccc3)ccc2O1` stands inactive: 1.05; under `COc1ccc(S(=O)(=O)N(C)C[C@@H]2Oc3ccc(NS(=O)(=O)c4ccccc4)cc3CC(=O)N([C@H](C)CO)C[C@H]2C)cc1`, inactive: 0.99; under `Cc1noc(C)c1S(=O)(=O)Nc1ccc2c(c1)C(=O)N([C@@H](C)CO)C[C@@H](C)[C@H](CN(C)C(=O)Nc1cccc3ccccc13)OCCCC[C@@H](C)O2`, inactive: 1.02.
`C[C@H](CO)N1C[C@H](C)[C@H](CN(C)Cc2ccc(Cl)c(Cl)c2)Oc2ccc(NC(=O)Nc3cccc4ccccc34)cc2CC1=O`: the relative growth was inactive: 1.04.
For the compound `C[C@H]1CN([C@@H](C)CO)C(=O)CCCn2cc(nn2)CO[C@@H]1CN(C)C(=O)Nc1ccccc1C(F)(F)F`, the relative growth was inactive: 0.97.
With `O=C(O)[C@H]1C[C@@H](CP(=O)(O)O)CCN1`, the relative growth is inactive: 0.983.
For the compound `C[C@H]1CN([C@@H](C)CO)C(=O)c2cc(NC(=O)CCCN(C)C)ccc2O[C@H]1CN(C)S(=O)(=O)c1ccc(F)cc1`, the relative growth is inactive: 0.97.
On to `C[C@@H]1CCCCO[C@H](CN(C)S(=O)(=O)c2cccs2)[C@@H](C)CN([C@H](C)CO)C(=O)c2cc(NC(=O)Cc3ccccc3)ccc2O1`, for which the relative growth was inactive: 1.03.
As to `COc1ccc(S(=O)(=O)N(C)C[C@H]2Oc3ccc(NS(=O)(=O)c4ccc(C)cc4)cc3C(=O)N([C@H](C)CO)C[C@H]2C)cc1`, the relative growth was inactive: 1.04.
Regarding `COc1ccc([C@@H](NC(=O)C2CCN(Cc3ccc(Oc4ccccc4)cc3)CC2)c2ccccc2C)cn1`, the relative growth is inactive: 1.02.
Turning to `C[C@@H]1CN([C@H](C)CO)S(=O)(=O)c2ccc(C#CCN(C)C)cc2O[C@H]1CN(C)Cc1ccc2c(c1)OCO2`, the relative growth was inactive: 1.
For the compound `C[C@H]1CN([C@@H](C)CO)C(=O)c2cccc(NC(=O)c3nc4ccccc4s3)c2O[C@H]1CN(C)Cc1ccc(C(=O)Nc2ccccc2N)cc1`, the relative growth is inactive: 1.02.
With `C[C@H](CO)N1C[C@H](C)[C@@H](CN(C)S(=O)(=O)c2ccccc2)Oc2c(NS(C)(=O)=O)cccc2C1=O`, the relative growth is inactive: 0.977.
Regarding `CO[C@@H]1[C@@H](O[C@@H]2O[C@H](C)[C@@H](O[C@H]3C[C@@](C)(O)[C@@H](O)[C@H](C)O3)[C@H](N(C)C)[C@H]2O)[C@@H](CC=O)C[C@@H](C)[C@@H](O[C@H]2CC[C@H](N(C)C)[C@@H](C)O2)/C=C/C=C/C[C@@H](C)OC(=O)C[C@H]1O`, the relative growth is inactive: 0.894.
For the compound `C[C@@H]1CN([C@H](C)CO)C(=O)c2cc(C#CC3CCCCC3)cnc2O[C@H]1CN(C)C(=O)Cc1ccccn1`, the relative growth is inactive: 0.996.
In the case of `NC1CCN(C(=O)NC2CCCCC2)CC1`, the relative growth was inactive: 0.993.
With `COc1ccc(NC(=O)Nc2ccc3c(c2)C(=O)N([C@@H](C)CO)C[C@@H](C)[C@@H](CN(C)C(=O)Nc2ccc4c(c2)OCO4)OCCCC[C@@H](C)O3)cc1`, the relative growth was inactive: 0.942.
Take `C[C@@H]1CN([C@@H](C)CO)C(=O)c2cc(NC(=O)CCC(F)(F)F)ccc2O[C@@H](C)CCCCO[C@H]1CN(C)Cc1ccc(C(F)(F)F)cc1`: the relative growth was inactive: 1.
Turning to `C[C@@H]1CN([C@@H](C)CO)C(=O)c2cc(NC(=O)CCC(F)(F)F)ccc2O[C@@H](C)CCCCO[C@H]1CN(C)Cc1ccc(C(=O)O)cc1`, the relative growth is inactive: 1.01.

The values above are taken from the supplement of paper PMC9446081.
